# Experimental data taken from publication PMC4336329 (PLoS ONE, 2015).
# Hit rate of the full screen: of about 310,000 compounds, about 2,200 (0.71%) showed an effect of 50% or more. Effects have a minus sign here. Some of the results follow.
# Target: human ether-à-go-go-related gene (hERG) potassium channel (human, UniProt Q12809)
# Test: primary screen, population patch clamp on CHO cells stably expressing hERG
# human ether-à-go-go-related gene (hERG) potassium channel, sequence (Q12809 whole entry, looked up): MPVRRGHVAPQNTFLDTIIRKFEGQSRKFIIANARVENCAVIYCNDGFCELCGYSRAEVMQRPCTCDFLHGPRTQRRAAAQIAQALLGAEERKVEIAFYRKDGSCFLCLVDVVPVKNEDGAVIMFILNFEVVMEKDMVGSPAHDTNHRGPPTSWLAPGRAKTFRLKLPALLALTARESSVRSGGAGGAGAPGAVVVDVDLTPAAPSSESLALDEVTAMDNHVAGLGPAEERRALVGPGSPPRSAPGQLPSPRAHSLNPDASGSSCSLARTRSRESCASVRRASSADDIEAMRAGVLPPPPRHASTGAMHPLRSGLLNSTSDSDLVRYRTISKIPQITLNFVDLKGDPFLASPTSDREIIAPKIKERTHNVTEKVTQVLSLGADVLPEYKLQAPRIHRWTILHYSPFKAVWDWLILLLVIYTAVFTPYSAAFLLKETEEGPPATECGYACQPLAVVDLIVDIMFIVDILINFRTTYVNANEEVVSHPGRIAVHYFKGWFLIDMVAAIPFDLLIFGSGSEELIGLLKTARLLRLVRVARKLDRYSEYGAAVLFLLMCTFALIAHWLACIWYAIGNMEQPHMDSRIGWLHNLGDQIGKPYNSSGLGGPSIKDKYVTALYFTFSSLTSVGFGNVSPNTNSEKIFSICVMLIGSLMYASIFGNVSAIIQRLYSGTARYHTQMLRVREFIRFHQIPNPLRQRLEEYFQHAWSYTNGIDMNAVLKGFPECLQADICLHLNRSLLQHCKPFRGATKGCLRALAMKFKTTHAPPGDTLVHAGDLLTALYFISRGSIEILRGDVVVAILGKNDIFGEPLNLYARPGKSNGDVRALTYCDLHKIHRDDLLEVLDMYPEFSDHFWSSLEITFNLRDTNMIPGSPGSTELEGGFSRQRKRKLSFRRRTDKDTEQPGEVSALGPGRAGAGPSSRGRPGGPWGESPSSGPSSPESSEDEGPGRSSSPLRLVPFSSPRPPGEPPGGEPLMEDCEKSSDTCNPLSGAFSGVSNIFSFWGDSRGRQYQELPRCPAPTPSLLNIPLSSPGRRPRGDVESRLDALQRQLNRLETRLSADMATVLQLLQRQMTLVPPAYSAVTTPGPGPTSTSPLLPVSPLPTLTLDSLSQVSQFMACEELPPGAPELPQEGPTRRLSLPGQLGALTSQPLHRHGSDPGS
row,SMILES,"hERG current change (%, negative = inhibition) at 1uM [%]"
1,O=C1CCCN1CCCNc1ccc(S(=O)(=O)N2CCCCC2)cn1,-2.53
2,CCCCNC(=O)O[C@H]1C[C@@H]2CCN3C(=O)CCC(C)(C)[C@H](C1)[C@H]23,-11
3,COc1cc(/C=N/n2cnc3c(sc4nc(C)cc(C)c43)c2=O)ccc1O,14.3
4,Brc1cccc(-c2nnco2)c1,4.69
5,CCOc1cc(/C=C/C(=O)N(CC)CC(=O)NCc2cccs2)cc(Cl)c1OC,0.567
6,O=C1NC(Cc2c[nH]c3ccccc23)C(=O)N1Cc1cccc2ccccc12 (stereo not drawn),9.96
7,COc1ccc(NC(=O)N(Cc2cccnc2)Cc2ccccc2Cl)c(OC)c1,-1.41
8,COc1cc(NC(=O)COC(C)=O)c(C)cc1[N+](=O)[O-],19.6
9,CN(c1cccc(NC(=O)c2ccccc2N(Cc2ccccc2)S(C)(=O)=O)c1)S(C)(=O)=O,18.6
10,O=C(Nc1ccc2c(c1)oc1ccccc12)c1cccnc1,12.1
11,O=C(NC(Cc1ccccc1)C(=O)O)C1CCN(S(=O)(=O)c2ccccc2C(F)(F)F)CC1 (stereo not drawn),12.3
12,O=C1N(Cc2cccnc2)C[C@@H]2C[C@@H](c3ccc(C(F)(F)F)cc3)N3CCC[C@@]123,-18.6
13,CN1CCN(C(=O)COc2ccc(Oc3ccccc3)cc2)CC1,2.64
14,CCCOc1ccc(CNC(=O)Cn2ncc3ccccc32)cc1,3.93
15,C/[N+]([O-])=C\c1cccc(OCCN2CCN(c3ncc(C(F)(F)F)cc3Cl)CC2)c1,1.19
16,COc1ccc(-c2nnc(NC(=O)C3=COCCO3)o2)cc1,8.41
17,Cc1ccc(C(=O)N2CCN(c3ccccc3)CC2)cc1S(=O)(=O)N1CCOCC1,0.15
18,COc1cc(NC(=S)Nc2cccnc2)cc(OC)c1,4.82
19,Cc1csc(SCC(=O)Nc2cccc(S(=O)(=O)N3CCOCC3)c2)n1,8.65
20,O=C(NC(NCC1CCCO1)C(Cl)(Cl)Cl)c1cccc2ccccc12 (stereo not drawn),8.75
21,COc1cc(OC)c(C2N(c3ccccn3)C(=O)C3CCCN32)cc1OC (stereo not drawn),12.8
22,CN1CCc2cc(Cl)c(O)cc2[C@@H](c2ccccc2)C1.Cl,-18.7
23,CCc1nn(CCCC(=O)NCc2ccccc2C)c(=O)c2cc3occc3n12,8.99

row,SMILES,"hERG current change (%, negative = inhibition) at 1uM [%]"
1,CC12CCC(C(=O)Nc3cc(F)ccc3F)(CC1=O)C2(C)C (stereo not drawn),0.45
2,Cc1ccc(CSc2nc3sc(C)c(C)c3c(=O)n2Cc2ccco2)cc1,-2.01
3,COc1ccccc1-c1ccc(NC2CCCCC2)nn1,-14
4,CCC(CC)NC(=O)Nc1ccc(C)cc1,11.4
5,O=C(N/C(=C/c1ccco1)C(=O)N1CCc2ccccc21)c1ccco1,7.21
6,COc1ccc(NC(=O)CSC2CCCCC2)cc1,-6.14
7,CCN1CCN(C(=O)CSCc2nc(-c3ccc(OC)c(OC)c3)oc2C)CC1,-14.9
8,CCCc1cc(=O)oc2cc(C)cc(OCC(=O)NCCN3CCOCC3)c12,12.8
9,CN(CC(=O)Nc1ccc(Cl)cc1)C1=NS(=O)(=O)c2ccccc21,9.12
10,COc1cccc(CNC(=O)CSCC(=O)Nc2cc(C)on2)c1,11.9
11,COc1ccc(/C=C2\CCCC3C2=NN(C(=O)CSc2n[nH]c(N)n2)C3c2ccc(OC)cc2)cc1 (stereo not drawn),12.5
12,Cc1cc(C(=O)OCC(=O)NCCc2ccccc2)c(C)o1,8.59
13,Cn1ccnc1Sc1ccc(/C=N/NC(=O)c2ccccc2O)cc1[N+](=O)[O-],-0.052
14,NC(=S)N/N=C/c1ccc(-c2ccc(Cl)c(Cl)c2)o1,5.38
15,COC(=O)N/N=C/c1cn(Cc2ccccc2Cl)c2ccccc12,17.2
16,Cc1cccn2c(=O)c(/C=C(\C#N)C(=O)NC3CCS(=O)(=O)C3)c(N3CCC(C)CC3)nc12 (stereo not drawn),-11
17,CC(C)N1CC(C(=O)Nc2ccc(C#N)cc2)CC1=O (stereo not drawn),14.9
18,COc1ccc(NC(=O)CSc2ccc(-c3sc(C)nc3C)nn2)cc1,16.7
19,OC1/C(=C/c2ccccc2F)N2CCC1CC2 (stereo not drawn),10.7
20,CN(CC(=O)Nc1cccc(F)c1)C(=O)CCNC(=O)c1ccco1,14.7
21,CC(=O)c1ccc(-c2ccc(C(=O)NCC3CCCO3)o2)cc1 (stereo not drawn),-24.7
22,Cn1c(C(=O)O)cc2cc(Oc3ccccc3)ccc21,10.4
